Laboratory results as given in PubChem BioAssay (NCATS).
Inconclusive means that the source gave no clear call. Such entries were picked first, then a sample of the others. Where the call is inconclusive, the potency comes from a doubtful curve fit. Calls of active or inactive are those of the source. The call rests on the fitted dose curve; in most records, active means well fitted inhibition curve with a large enough effect; inconclusive means small, poorly fitted or top-dose-only effect; inactive means no such curve, though single readings can be large or run the other way.

Assay: BET inhibitor-based combinations targeting novel dependencies in MECOM-rearranged (r) AML: HNT-34 cell line (AID 2202234); further: nearly all actives have a fitted effect of over 35% in size
Conditions: HNT-34 AML viability, CellTiter-Glo luminescence, 48 h; series mostly up to 46 µM
How it was run: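 Cells at 500/well were exposed for 48 hr to MIPE v5.0 drugs as 11-point dose curves. Viability was read by CellTiter-Glo luminescence and normalized to DMSO and empty-well controls. Activity was expressed as AUC and per-cell-line Z-AUC.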
Potency means the concentration at half of the fitted maximal effect; tags describe the fitted curve by direction and shape.

| Structure (SMILES) | Potency |
| --- | --- |
| COC(=O)N(CC(=O)O)Cc1cccc(OCc2nc(-c3ccc(Cl)cc3)oc2C)c1 | inconclusive: 23.5 µM [inhibitor, partial curve, poor fit] |
| CN1CCN(c2ccc(-c3cccc(CN4CCOCC4)c3)cc2NC(=O)c2c[nH]c(=O)cc2C(F)(F)F)CC1 | inactive |
| CC[C@@H](Oc1cccc(CN(CCCOc2ccc(OC)cc2)c2nc3ccccc3o2)c1)C(=O)O | inactive |
| CN(C)CC(C)(C)CNc1nn2c(-c3ccccc3)nnc2cc1C1CCC1 | inconclusive: 5.9 µM [inhibitor, full curve, poor fit] |
| COc1cc(OC)c(NC(=O)Nc2cc(C)on2)cc1Cl | inactive |
| O=C1OC2(CCC(C(=O)Nc3ccn(-c4ccccc4F)n3)CC2)c2cnccc21 (configuration not stated) | inconclusive: 18.6 µM [inhibitor, partial curve, poor fit] |
| O=C(O)[C@H](CC(=O)N1C[C@H]2CCCC[C@H]2C1)Cc1ccccc1 | inactive |
| NC[C@H]1O[C@H](O[C@H]2[C@H](O)[C@@H](O[C@H]3O[C@H](CO)[C@@H](O)[C@H](N)[C@H]3O)[C@H](N)C[C@@H]2N)[C@H](N)C[C@@H]1O | inconclusive: 23.5 µM [inhibitor, single point] |
| O=C(c1ccc(F)cc1)N1CCC[C@H](c2nc(-c3ccc(F)cc3)no2)C1 | inconclusive: 23.5 µM [inhibitor, partial curve, poor fit] |
| C[C@H]1CNCCCN1S(=O)(=O)c1cccc2cncc(F)c12 | inconclusive: 18.2 µM [inhibitor, partial curve, poor fit] |
| O=C1[C@H](Cc2ccc(O)cc2)N2C(=O)CCN(C(=O)NCc3ccccc3)[C@H]2CN1Cc1cccc2ccccc12 | active: 5.25 µM |
| C=C1/C(=C/C=C2\CCCC3(C)[C@@H]([C@H](C)/C=C/C=C/C(O)(CC)CC)CC[C@@H]23)C[C@@H](O)C[C@@H]1O (some centres not stated) | inconclusive: 26.3 µM [inhibitor, single point] |
| Clc1cccc(-c2ccc(-c3nnc(CCCc4ccc5cccnc5n4)o3)cc2)c1 | inactive |
| C=C1[C@H](OC(=O)/C=C(\C)CC)C[C@@H](C(C)C)[C@@H]2[C@H]([C@@H](C)OC(C)=O)C(=O)C[C@@H]12 | inconclusive: 20.9 µM [inhibitor, partial curve] |
| COc1cc(Nc2nc3ccccc3nc2NS(=O)(=O)c2ccc(NC(=O)c3ccc(C)c(OC)c3)cc2)cc(OC)c1 | inactive |
| COc1c(N2CCNC(C)C2)c(F)cc2c(=O)c(C(=O)O)cn(C3CC3)c12 (configuration not stated) | inactive |
| Nc1nc2cc(-c3ccc4ncc(C(=O)N5CCOCC5)n4c3)ccc2o1 | active: 16.6 µM |
| Clc1ccc(Cn2c(CN3CCCC3)nc3ccccc32)cc1 | inconclusive: 18.6 µM [inhibitor, partial curve] |
| C[C@@H](OC[C@@]1(c2ccccc2)CC[C@]2(CCC(=O)N2)CN1)c1cc(C(F)(F)F)cc(C(F)(F)F)c1 | active: 18.6 µM |
| CCC1CCCCN1C(=O)n1ncc(C(O)(c2ccccc2)c2ccccc2)n1 (configuration not stated) | inconclusive: 10.5 µM [inhibitor, partial curve] |
| COc1cc2nccc(Oc3ccc(NC(=O)c4cn(C(C)C)c(=O)n(-c5ccc(F)cc5)c4=O)cc3F)c2cc1OC | inconclusive: 0.417 µM [inhibitor, full curve] |
| CCOc1ccccc1N=Nc1c(C)[nH]n(-c2nc(-c3ccccc3)cs2)c1=O | inactive |
| CC(=O)OCC(CCn1cnc2cnc(N)nc21)COC(C)=O | inactive |
| COc1ccc(CCC(=O)Nc2nc3ccc(Cl)cc3s2)cc1OC | inconclusive: 18.6 µM [inhibitor, partial curve, poor fit] |
| C[C@]12CC[C@@H]3c4ccc(O)cc4C[C@@H](CCCCCCCCCS(=O)CCCC(F)(F)C(F)(F)F)[C@H]3[C@H]1CC[C@H]2O (some centres not stated) | inconclusive: 14.8 µM [inhibitor, partial curve] |
| CCCC1OC2C[C@@H]3[C@H]4CCC5=CC(=O)C=C[C@]5(C)[C@H]4C(O)C[C@]3(C)[C@]2(C(=O)CO)O1 (some centres not stated) | inconclusive: 16.6 µM [inhibitor, partial curve] |
| COc1ccc(/C=C\c2cc(OC)c(OC)c(OC)c2)cc1O | inconclusive: 0.0093 µM [inhibitor, full curve] |
